± gives the standard deviation of the averaged measurements. Laboratory Escherichia coli strains with one amino-acid change in an essential protein, pooled on minimal glucose agar with carbenicillin or gentamicin at twice the control MIC (plus kanamycin and chloramphenicol for the plasmids), 48 h. Fold change of barcode share against drug-free plates; higher = less susceptible. Active = above 20 in both replicates (the paper's putatively resistant). '<' = one read or none on drug, '>' = one read or none on a drug-free plate. Shares are relative, so most strains fall below 1 when a few take over. Listed are strains with at least 15 reads on both drug-free plates, and hits; most hits rest on fewer reference reads. Replicate rank correlation about 0.5. Edits are read from barcodes.
B1: purL; numbered along this chain (parent)
chain: MMEILRGSPALSAFRINKLLARFQAARLPVHNIYAEYVHFADLNAPLNDDEHAQLERLLKYGPALASHAPQGKLLLVTPRPGTISPWSSKATDIAHNCGLQQVNRLERGVAYYIEAGTLTNEQWQQVTAELHDRMMETVFFALDDAEQLFAHHQPTPVTSVDLLGQGRQALIDANLRLGLALAEDEIDYLQDAFTKLGRNPNDIELYMFAQANSEHCRHKIFNADWVIDGEQQPKSLFKMIKNTFETTPDHVLSAYKDNAAVMEGSEVGRYFADHETGRYDFHQEPAHILMKVETHNHPTAISPWPGAATGSGGEIRDEGATGRGAKPKAGLVGFSVSNLRIPGFEQPWEEDFGKPERIVTALDIMTEGPLGGAAFNNEFGRPALNGYFRTYEEKVNSHNGEELRGYHKPIMLAGGIGNIRADHVQKGEINVGAKLVVLGGPAMNIGLGGGAASSMASGQSDADLDFASVQRDNPEMERRCQEVIDRCWQLGDANPILFIHDVGAGGLSNAMPELVSDGGRGGKFELREILSDEPGMSPLEIWCNESQERYVLAVAADQLPLFDELCKRERAPYAVIGEATEELHLSLHDRHFDNQPIDLPLDVLLGKTPKMTRDVQTLKAKGDALAREGITIADAVKRVLHLPTVAEKTFLVTIGDRSVTGMVARDQMVGPWQVPVANCAVTTASLDSYYGEAMAIGERAPVALLDFAASARLAVGEALTNIAATQIGDIKRIKLSANWMAAAGHPGEDAGLYEAVKAVGEELCPALGLTIPVGKDSMSMKTRWQEGNEEREMTSPLSLVISAFARVEDVRHTITPQLSTEDNALLLIDLGKGNNALGATALAQVYRQLGDKPADVRDVAQLKGFYDAIQALVAQRKLLAYHDRSDGGLLVTLAEMAFAGHCGIDADIATLGDDRLAALFNEELGAVIQVRAADREAVESVLAQHGLADCVHYVGQAVSGDRFVITANGQTVFSESRTTLRVWWAETTWQMQRLRDNPECADQEHQAKSNDADPGLNVKLSFDINEDVAAPYIATGARPKVAVLREQGVNSHVEMAAAFHRAGFDAIDVHMSDLLTGRTGLEDFHALVACGGFSYGDVLGAGEGWAKSILFNDRVRDEFATFFHRPQTLALGVCNGCQMMSNLRELIPGSELWPRFVRNTSDRFEARFSLVEVTQSPSLLLQGMVGSQMPIAVSHGEGRVEVRDAAHLAALESKGLVALRYVDNFGKVTETYPANPNGSPNGITAVTTESGRVTIMMPHPERVFRTVSNSWHPENWGEDGPWMRIFRNARKQLG
B2: lpxH; numbered along this chain (parent)
chain: MATLFIADLHLCVEEPAITAGFLRFLAGEARKADALYILGDLFEAWIGDDDPNPLHRKMAAAIKAVSDSGVPCYFIHGNRDFLLGKRFARESGMTLLPEEKVLELYGRRVLIMHGDTLCTDDAGYQAFRAKVHKPWLQTLFLALPLFVRKRIAARMRANSKEANSSKSLAIMDVNQNAVVSAMEKHQVQWLIHGHTHRPAVHELIANQQPAFRVVLGAWHTEGSMVKVTADDVELIHFPF
B3: murJ; numbered along this chain (parent)
chain: MNLLKSLAAVSSMTMFSRVLGFARDAIVARIFGAGMATDAFFVAFKLPNLLRRIFAEGAFSQAFVPILAEYKSKQGEDATRVFVSYVSGLLTLALAVVTVAGMLAAPWVIMVTAPGFADTADKFALTSQLLKITFPYILLISLASLVGAILNTWNRFSIPAFAPTLLNISMIGFALFAAPYFNPPVLALAWAVTVGGVLQLVYQLPHLKKIGMLVLPRINFHDAGAMRVVKQMGPAILGVSVSQISLIINTIFASFLASGSVSWMYYADRLMEFPSGVLGVALGTILLPSLSKSFASGNHDEYNRLMDWGLRLCFLLALPSAVALGILSGPLTVSLFQYGKFTAFDALMTQRALIAYSVGLIGLIVVKVLAPGFYSRQDIKTPVKIAIVTLILTQLMNLAFIGPLKHAGLSLSIGLAACLNASLLYWQLRKQKIFTPQPGWMAFLLRLVVAVLVMSGVLLGMLHIMPEWSLGTMPWRLLRLMAVVLAGIAAYFAALAVLGFKVKEFARRTV

Variants of: B1
Assay: barcode share on antibiotic plates over drug-free plates; higher = less susceptible
Settings: with Escherichia coli (laboratory strain); antibiotic: carbenicillin; 2× MIC (3.1 µg/mL)
Method: (§1)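 A pool of E. coli strains, each edited to carry one amino-acid change in an essential protein, was grown for 48 h on minimal glucose agar with or without antibiotic; strain barcodes were sequenced; mean of two replicates.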

Variant | fold change of barcode share
I500D | 2.1 ± 0.3
I500P | 1.02 ± 0.066
I500Q | 0.513 ± 0.18
I500W | 0.591 ± 0.31
M512A | 1.4 ± 0.55
M512D | 1.34 ± 0.09
M512P | 1.26 ± 0.029
M512Q | 1.12 ± 0.02
M512W | 1.01 ± 0.13
L652D | > 28.1 [active]
L652Q | 2.64 ± 1.2
L652W | > 40.3 [active]
L720A | 0.592 ± 0.17
L720D | > 46.3 [active]
L720W | 0.757 ± 0.21

Same assay, conditions: with Escherichia coli (laboratory strain); antibiotic: gentamicin; 2× MIC (MIC 0.45 µg/mL)

Variant | fold change of barcode share
I500P | < 0.00708
I500Q | < 0.00974
I500W | 0.0232 ± 0.0062
M512A | 0.00859 ± 0.0038
M512D | 0.0104 ± 0.0034
M512P | 0.0093 ± 0.0042
M512Q | 0.00764 ± 0.0041
M512W | 0.0538 ± 0.063
L652Q | < 0.0181
L720A | 0.0165 ± 0.013
V333A | < 0.016

Variants of: B2
Assay: as above
Settings: with Escherichia coli (laboratory strain); antibiotic: carbenicillin; 2× MIC (3.1 µg/mL)
Method: as §1

Variant | fold change of barcode share
L39A | 0.214 ± 0.081
L39D | 0.452 ± 0.3
L39P | 0.257 ± 0.0049
L39Q | 0.217 ± 0.018
F75A | 0.257 ± 0.096
F75D | 0.319 ± 0.0032
F75P | 0.614 ± 0.09
F75Q | 0.213 ± 0.045
F75W | 0.321 ± 0.17
L111A | 0.679 ± 0.51
L111D | 0.414 ± 0.044
L111P | 0.466 ± 0.037
L111Q | 0.277 ± 0.037
L111W | 1.86 ± 0.23
I112P | 3.05 ± 3.5
I112Q | 0.3 ± 0.1
I112W | 0.274 ± 0.03
M113A | 0.299 ± 0.0037
M113P | 0.432 ± 0.23
M113Q | 0.274 ± 0.1
M113W | 0.306 ± 0.008
V215P | 0.355 ± 0.15
L216D | 0.307 ± 0.1
L216W | 0.29 ± 0.12

Same assay, conditions: with Escherichia coli (laboratory strain); antibiotic: gentamicin; 2× MIC (MIC 0.45 µg/mL)

Variant | fold change of barcode share
L39A | < 0.00521
L39D | < 0.00515
L39P | 0.00708 ± 0.0018
L39Q | < 0.00465
F75A | 0.00769 ± 0.0083
F75D | 0.00506 ± 0.0025
F75P | < 0.00443
F75Q | 0.00375 ± 0.0026
F75W | 0.00517 ± 0.0045
L111A | 0.00675 ± 0.0068
L111D | 0.00977 ± 0.0005
L111P | 0.00858 ± 0.0012
L111Q | 0.00619 ± 0.0033
L111W | 0.00631 ± 0.0018
I112P | 0.00545 ± 0.0015
I112Q | < 0.0023
I112W | 0.0293 ± 0.03
M113A | < 0.00474
M113P | 0.00526 ± 0.0029
M113Q | 0.00688 ± 0.0049
M113W | < 0.00787
V215P | 0.00554 ± 0.0029
L216D | 0.0181 ± 0.011
I112A | 0.00971 ± 0.0094
M113D | < 0.00409
V215A | 0.00341 ± 0.0019
V215D | < 0.00187
L216A | < 0.0151
L216Q | < 0.0157

Variants of: B3
Assay: as above
Settings: with Escherichia coli (laboratory strain); antibiotic: carbenicillin; 2× MIC (3.1 µg/mL)
Method: as §1

Variant | fold change of barcode share
L448Q | 0.222 ± 0.02
V484P | 0.415 ± 0.039
V484A | 0.248 ± 0.066
V484D | 0.261 ± 0.0095
M482W | 0.289 ± 0.047
V450A | 0.267 ± 0.06
V498Q | 0.365 ± 0.024
M482A | 0.754 ± 0.21
V484Q | 0.3847 ± 0.0036
L448A | 1.05 ± 0.69
L496D | 0.629 ± 0.27
M466W | 0.245 ± 0.031
V450P | 0.365 ± 0.16
L496Q | 0.393 ± 0.066

Same assay, conditions: with Escherichia coli (laboratory strain); antibiotic: gentamicin; 2× MIC (MIC 0.45 µg/mL)

Variant | fold change of barcode share
L448Q | 0.00934 ± 0.0093
V484P | 0.00353 ± 0.00095
V484A | 0.00626 ± 0.0047
V484D | 0.00782 ± 0.0075
M482W | 0.00182 ± 0.0013
V450A | 0.077 ± 0.1
V498Q | 0.00899 ± 0.0055
M482A | 0.012 ± 0.0065
V484Q | 0.0102 ± 0.0072
L448A | 0.339 ± 0.47
L496D | 0.00851 ± 0.007
M466W | 0.00479 ± 0.0019
V450P | 0.00534 ± 0.0049
L496Q | 0.00663 ± 0.0019
